Data: patent US20260053861A1, “CELL COMPOSITIONS AND METHODS OF USING THE SAME” (THE REGENTS OF THE UNIVERSITY OF CALIFORNIA, priority 2022, published 2026)

Test system: sciatic nerves of STZ treated animals
Test: Transmission electron microscopy of myelin in sciatic nerves of STZ-treated mice
Settings: BP+STZ vs STZ

For `CC(NC(C)(C)C)C(=O)c1cccc(Cl)c1` (stereo not shown) [BP, Bupropion], the “percentage of fibers with damaged myelin in the sciatic nerves” value was “significantly reduced”.
